The values that follow come from paper PMC12435841.

Numbering of substitutions follows the chain as printed. Names may count otherwise. These are yes or no findings as the source states them, for the method shown. In cells and extracts the contact can be indirect. Some results given as binding are weak or reduced against the parent protein; the word gives no strength. Where a sequence is shown, tags or fusion partners need not be part of it.

The chains are these.
B1: SNW1 D57_K110del (deletion of exon 3), FLAG-tagged (protein, UniProt Q13573)
chain: MALTSFLPAPTQLSQDQLEAEEKARSQRSRQTSLVSSRREPPPYGYRKGWIPRLLEVIYSKYTDLVPKEVMNADDPDLQRPDEEAIKEITEKTRVALEKSVSQKVAAAMPVRAADKLAPAQYIRYTPSQQGVAFNSGAKQRVIRMVEMQKDPMEPPRFKINKKIPRGPPSPPAPVMHSPSRKMTVKEQQEWKIPPCISNWKNAKGYTIPLDKRLAADGRGLQTVHINENFAKLAEALYIADRKAREAVEMRAQVERKMAQKEKEKHEEKLREMAQKARERRAGIKTHVEKEDGEARERDEIRHDRRKERQHDRNLSRAAPDKRSKLQRNENRDISEVIALGVPNPRTSNEVQYDQRLFNQSKGMDSGFAGGEDEIYNVYDQAWRGGKDMAQSIYRPSKNLDKDMYGDDLEARIKTNRFVPDKEFSGSDRRQRGREGPVQFEEDPFGLDKFLEEAKQHGGSKRPSDSSRPKEHEHEGKKRRKE
B2: SNW domain-containing protein 1 (SNW1), wild type, FLAG-tagged (protein, UniProt Q13573 1-536)
chain: MALTSFLPAPTQLSQDQLEAEEKARSQRSRQTSLVSSRREPPPYGYRKGWIPRLLEDFGDGGAFPEIHVAQYPLDMGRKKKMSNALAIQVDSEGKIKYDAIARQGQSKDKVIYSKYTDLVPKEVMNADDPDLQRPDEEAIKEITEKTRVALEKSVSQKVAAAMPVRAADKLAPAQYIRYTPSQQGVAFNSGAKQRVIRMVEMQKDPMEPPRFKINKKIPRGPPSPPAPVMHSPSRKMTVKEQQEWKIPPCISNWKNAKGYTIPLDKRLAADGRGLQTVHINENFAKLAEALYIADRKAREAVEMRAQVERKMAQKEKEKHEEKLREMAQKARERRAGIKTHVEKEDGEARERDEIRHDRRKERQHDRNLSRAAPDKRSKLQRNENRDISEVIALGVPNPRTSNEVQYDQRLFNQSKGMDSGFAGGEDEIYNVYDQAWRGGKDMAQSIYRPSKNLDKDMYGDDLEARIKTNRFVPDKEFSGSDRRQRGREGPVQFEEDPFGLDKFLEEAKQHGGSKRPSDSSRPKEHEHEGKKRRKE
B3: SNW1 A63P, FLAG-tagged (protein, UniProt Q13573 1-536)
chain: B2 chain with A63P
B4: SNW1 G61_G62del, FLAG-tagged (protein, UniProt Q13573 1-536)
chain: MALTSFLPAPTQLSQDQLEAEEKARSQRSRQTSLVSSRREPPPYGYRKGWIPRLLEDFGDAFPEIHVAQYPLDMGRKKKMSNALAIQVDSEGKIKYDAIARQGQSKDKVIYSKYTDLVPKEVMNADDPDLQRPDEEAIKEITEKTRVALEKSVSQKVAAAMPVRAADKLAPAQYIRYTPSQQGVAFNSGAKQRVIRMVEMQKDPMEPPRFKINKKIPRGPPSPPAPVMHSPSRKMTVKEQQEWKIPPCISNWKNAKGYTIPLDKRLAADGRGLQTVHINENFAKLAEALYIADRKAREAVEMRAQVERKMAQKEKEKHEEKLREMAQKARERRAGIKTHVEKEDGEARERDEIRHDRRKERQHDRNLSRAAPDKRSKLQRNENRDISEVIALGVPNPRTSNEVQYDQRLFNQSKGMDSGFAGGEDEIYNVYDQAWRGGKDMAQSIYRPSKNLDKDMYGDDLEARIKTNRFVPDKEFSGSDRRQRGREGPVQFEEDPFGLDKFLEEAKQHGGSKRPSDSSRPKEHEHEGKKRRKE
B5: SNW1 M230_H231delinsRY, FLAG-tagged (protein, UniProt Q13573 1-536)
chain: B2 chain with M230R, H231Y

One assay concerns the target T1, PPIL1, HA-tagged (human) (UniProt Q9Y3C6).
T1 sequence: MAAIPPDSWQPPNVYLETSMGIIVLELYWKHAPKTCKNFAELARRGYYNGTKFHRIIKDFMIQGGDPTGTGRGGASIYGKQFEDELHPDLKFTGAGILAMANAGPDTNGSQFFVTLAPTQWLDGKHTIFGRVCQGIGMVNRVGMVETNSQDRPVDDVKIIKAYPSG
In words: co-IP; HEK293T cells transfected with plasmids encoding SNW1-FLAG (WT or variant) and the HA-tagged partner; cell lysates subjected to anti-FLAG and anti-HA IP, analysed by Western blotting.
For B1, the binding result is “no binding”.
As to B2, the binding result was “binds”.
On the same count and under the same terms, for B3 the value was “no binding”; for B4, “no binding”.

The target of another assay is T2, PLRG1, HA-tagged (human) (UniProt O43660).
T2 sequence: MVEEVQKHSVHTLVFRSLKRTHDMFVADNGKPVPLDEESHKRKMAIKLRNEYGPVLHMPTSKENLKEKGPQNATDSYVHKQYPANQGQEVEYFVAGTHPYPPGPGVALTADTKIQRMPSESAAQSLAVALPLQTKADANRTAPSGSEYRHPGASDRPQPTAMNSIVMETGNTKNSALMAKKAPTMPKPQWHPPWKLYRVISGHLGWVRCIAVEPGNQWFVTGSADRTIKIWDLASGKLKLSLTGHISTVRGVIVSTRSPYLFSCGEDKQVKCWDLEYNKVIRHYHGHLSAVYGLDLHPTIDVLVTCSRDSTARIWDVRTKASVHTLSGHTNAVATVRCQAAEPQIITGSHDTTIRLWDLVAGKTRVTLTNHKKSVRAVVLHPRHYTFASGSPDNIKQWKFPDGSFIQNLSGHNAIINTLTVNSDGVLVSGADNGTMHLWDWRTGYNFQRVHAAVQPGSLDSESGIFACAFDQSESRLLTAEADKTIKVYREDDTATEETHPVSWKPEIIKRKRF
The assay is described as above.
For the molecule B2, the binding entry is “binds”.
On the same count and under the same terms, for B5 the value was “binds”.
